Measured values from patent EP4748857A1 (Seoul National University R&DB Foundation, dated 2026).

B1: TIG clone (humanized 3E-3, anti-CD40L) (bispecific antibody)
scFv: ELTQDPAVSVALGQTVRITCSGGYSSYGIYYYGWYQQKPGQAPVTVIYNGNKRPSGIPDRFSGSSSGNTASLTITGAQAEDEADYYCGSGDSSSDSGIFGGGTKLTVLGQSSRSSGGGGSSGGGGSEVQLVESGGGLVQPGGSLRLICAASGFTFSSYGMNWVRQAPGKGLEWVGAISNDGSSTSYAP[about 20 residues left out]MNSLRAEDTAVYYCAKESTNGGWVADDIDAWGQGTLVTVSS
notes: not shown: [CUT]
B2: TIS clone (humanized 3E-3, anti-CD40L) (bispecific antibody)
scFv: ELTQDPAVSVALGQTVRITCSGGYSSYGIYYYGWYQQKPGQAPVTVIYNGNKRPSGIPDRFSGSSSGNTASLTITGAQAEDEADYYCGSGDSSSDSGIFGGGTKLTVLGQSSRSSGGGGSSGGGGSEVQLVESGGGLVQPGGSLRLICAASGFTFSSYGMNWVRQAPGKGLEWVSAISNDGSSTSYAP[about 20 residues left out]MNSLRAEDTAVYYCAKESTNGGWVADDIDAWGQGTLVTVSS
notes: not shown: [CUT]
B3: TSS clone (humanized 3E-3, anti-CD40L) (bispecific antibody)
scFv: ELTQDPAVSVALGQTVRITCSGGYSSYGIYYYGWYQQKPGQAPVTVIYNGNKRPSGIPDRFSGSSSGNTASLTITGAQAEDEADYYCGSGDSSSDSGIFGGGTKLTVLGQSSRSSGGGGSSGGGGSEVQLVESGGGLVQPGGSLRLSCAASGFTFSSYGMNWVRQAPGKGLEWVSAISNDGSSTSYAP[about 20 residues left out]MNSLRAEDTAVYYCAKESTNGGWVADDIDAWGQGTLVTVSS
notes: not shown: [CUT]
B4: TSGx2-G12, anti-CD40L/anti-CD28 bispecific antibody [N'-(TSG scFv) - linker-Ck-linker - (2-G12 scFv)-C'] (bispecific antibody)
chain: ELTQDPAVSVALGQTVRITCSGGYSSYGIYYYGWYQQKPGQAPVTVIYNGNKRPSGIPDRFSGSSSGNTASLTITGAQAEDEADYYCGSGDSSSDSGIFGGGTKLTVLGQSSRSSGGGGSSGGGGSEVQLVESGGGLVQPGGSLRLSCAASGFTFSSYGMNWVRQAPGKGLEWVGAISNDGSSTSYAP[about 20 residues left out]MNSLRAEDTAVYYCAKESTNGGWVADDIDAWGQGTLVTVSSGQAGQGGGGSGGGGSGGGGSKLRTVAAPSVFIFPPSDEQLKSGTASVVCLLNNFYPREAKVQWKVDNALQSGNSQESVTEQDSKDSTYSLSSTLTLSKADYEKHKVYACEVTHQGLSLPVTKSFNRGESLEGGGGSGGGGSGGGGSTGLTQPSSVSANPGETVKITCSGGGSNNYGWYQQKPGSAPVTVIYYNDKRPSGIPSRFSGSTSGSTGTLTITGVRAEDEAVYFCGSRDSSHDGIFGGGTKLTVLGQSSRSSGGGGSSGGGGSPVKLVESGGGLVTPGGSLRLSCSASGFTFSSYAMHWVRQAPGKGLEYVGQISSNDGSWTGYGAAVKGRFTISRDNSKSTLYLQMNSLRAEDTAVYYCAKAAGGYNVCGYGCGGDYIDAWGHGTQVTVSSTS
notes: also called anti-CD40L-Ck-CD28 bispecific antibody; aCD40L-aCD28

How the values were obtained:
[1] = target: T1, human CD40L expressed on cells (Jurkat D1.1 (hCD40L+) cell line); CD154L cells / L cell line overexpressing … (human, UniProt P29965 1-261); assay: flow cytometry (FIG. 22)
T1 construct: whole, on cells; also called CD154L (hCD40L+) cell line; L cell line overexpressing hCD40L
T1 sequence (looked up): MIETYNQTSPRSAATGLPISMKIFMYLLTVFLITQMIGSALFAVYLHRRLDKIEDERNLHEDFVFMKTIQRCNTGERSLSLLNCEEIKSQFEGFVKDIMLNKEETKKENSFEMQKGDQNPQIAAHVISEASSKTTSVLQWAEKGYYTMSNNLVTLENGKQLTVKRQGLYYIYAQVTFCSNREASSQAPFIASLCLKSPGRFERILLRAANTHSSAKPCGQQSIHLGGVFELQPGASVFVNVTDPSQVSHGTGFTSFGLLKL

[2] = target: T2, human CD28 expressed on cells (Jurkat E6.1 (Human CD28+) cell line; human CD4 T cells) (human, UniProt P10747 19-220); assay: flow cytometry, Jurkat E6.1 cells, anti-hCk-APC detection
T2 construct: whole, on cells; also called cell surface CD28; hCD28+

[3] = target: T3, recombinant human CD28 protein (R&D systems) in a form conjugated to human Fc region (human, UniProt P10747 19-152); assay: ELISA, plate coated with recombinant CD28-Fc, anti-hCk-HRP detection
T3 construct: also called recombinant CD28 protein; not shown: human Fc region

| Binder | binding result [1] | binding result [2] | binding result [3] |
| --- | --- | --- | --- |
| B1 | binds |  |  |
| B2 | binds |  |  |
| B3 | binds |  |  |
| B4 |  | binds | binds |
